The target in the test is LRP1 on primary human macrophages (human (endogenous in primary human macrophages)) (UniProt Q07954).
Sequence of UniProt Q07954 (Q07954 20-4544): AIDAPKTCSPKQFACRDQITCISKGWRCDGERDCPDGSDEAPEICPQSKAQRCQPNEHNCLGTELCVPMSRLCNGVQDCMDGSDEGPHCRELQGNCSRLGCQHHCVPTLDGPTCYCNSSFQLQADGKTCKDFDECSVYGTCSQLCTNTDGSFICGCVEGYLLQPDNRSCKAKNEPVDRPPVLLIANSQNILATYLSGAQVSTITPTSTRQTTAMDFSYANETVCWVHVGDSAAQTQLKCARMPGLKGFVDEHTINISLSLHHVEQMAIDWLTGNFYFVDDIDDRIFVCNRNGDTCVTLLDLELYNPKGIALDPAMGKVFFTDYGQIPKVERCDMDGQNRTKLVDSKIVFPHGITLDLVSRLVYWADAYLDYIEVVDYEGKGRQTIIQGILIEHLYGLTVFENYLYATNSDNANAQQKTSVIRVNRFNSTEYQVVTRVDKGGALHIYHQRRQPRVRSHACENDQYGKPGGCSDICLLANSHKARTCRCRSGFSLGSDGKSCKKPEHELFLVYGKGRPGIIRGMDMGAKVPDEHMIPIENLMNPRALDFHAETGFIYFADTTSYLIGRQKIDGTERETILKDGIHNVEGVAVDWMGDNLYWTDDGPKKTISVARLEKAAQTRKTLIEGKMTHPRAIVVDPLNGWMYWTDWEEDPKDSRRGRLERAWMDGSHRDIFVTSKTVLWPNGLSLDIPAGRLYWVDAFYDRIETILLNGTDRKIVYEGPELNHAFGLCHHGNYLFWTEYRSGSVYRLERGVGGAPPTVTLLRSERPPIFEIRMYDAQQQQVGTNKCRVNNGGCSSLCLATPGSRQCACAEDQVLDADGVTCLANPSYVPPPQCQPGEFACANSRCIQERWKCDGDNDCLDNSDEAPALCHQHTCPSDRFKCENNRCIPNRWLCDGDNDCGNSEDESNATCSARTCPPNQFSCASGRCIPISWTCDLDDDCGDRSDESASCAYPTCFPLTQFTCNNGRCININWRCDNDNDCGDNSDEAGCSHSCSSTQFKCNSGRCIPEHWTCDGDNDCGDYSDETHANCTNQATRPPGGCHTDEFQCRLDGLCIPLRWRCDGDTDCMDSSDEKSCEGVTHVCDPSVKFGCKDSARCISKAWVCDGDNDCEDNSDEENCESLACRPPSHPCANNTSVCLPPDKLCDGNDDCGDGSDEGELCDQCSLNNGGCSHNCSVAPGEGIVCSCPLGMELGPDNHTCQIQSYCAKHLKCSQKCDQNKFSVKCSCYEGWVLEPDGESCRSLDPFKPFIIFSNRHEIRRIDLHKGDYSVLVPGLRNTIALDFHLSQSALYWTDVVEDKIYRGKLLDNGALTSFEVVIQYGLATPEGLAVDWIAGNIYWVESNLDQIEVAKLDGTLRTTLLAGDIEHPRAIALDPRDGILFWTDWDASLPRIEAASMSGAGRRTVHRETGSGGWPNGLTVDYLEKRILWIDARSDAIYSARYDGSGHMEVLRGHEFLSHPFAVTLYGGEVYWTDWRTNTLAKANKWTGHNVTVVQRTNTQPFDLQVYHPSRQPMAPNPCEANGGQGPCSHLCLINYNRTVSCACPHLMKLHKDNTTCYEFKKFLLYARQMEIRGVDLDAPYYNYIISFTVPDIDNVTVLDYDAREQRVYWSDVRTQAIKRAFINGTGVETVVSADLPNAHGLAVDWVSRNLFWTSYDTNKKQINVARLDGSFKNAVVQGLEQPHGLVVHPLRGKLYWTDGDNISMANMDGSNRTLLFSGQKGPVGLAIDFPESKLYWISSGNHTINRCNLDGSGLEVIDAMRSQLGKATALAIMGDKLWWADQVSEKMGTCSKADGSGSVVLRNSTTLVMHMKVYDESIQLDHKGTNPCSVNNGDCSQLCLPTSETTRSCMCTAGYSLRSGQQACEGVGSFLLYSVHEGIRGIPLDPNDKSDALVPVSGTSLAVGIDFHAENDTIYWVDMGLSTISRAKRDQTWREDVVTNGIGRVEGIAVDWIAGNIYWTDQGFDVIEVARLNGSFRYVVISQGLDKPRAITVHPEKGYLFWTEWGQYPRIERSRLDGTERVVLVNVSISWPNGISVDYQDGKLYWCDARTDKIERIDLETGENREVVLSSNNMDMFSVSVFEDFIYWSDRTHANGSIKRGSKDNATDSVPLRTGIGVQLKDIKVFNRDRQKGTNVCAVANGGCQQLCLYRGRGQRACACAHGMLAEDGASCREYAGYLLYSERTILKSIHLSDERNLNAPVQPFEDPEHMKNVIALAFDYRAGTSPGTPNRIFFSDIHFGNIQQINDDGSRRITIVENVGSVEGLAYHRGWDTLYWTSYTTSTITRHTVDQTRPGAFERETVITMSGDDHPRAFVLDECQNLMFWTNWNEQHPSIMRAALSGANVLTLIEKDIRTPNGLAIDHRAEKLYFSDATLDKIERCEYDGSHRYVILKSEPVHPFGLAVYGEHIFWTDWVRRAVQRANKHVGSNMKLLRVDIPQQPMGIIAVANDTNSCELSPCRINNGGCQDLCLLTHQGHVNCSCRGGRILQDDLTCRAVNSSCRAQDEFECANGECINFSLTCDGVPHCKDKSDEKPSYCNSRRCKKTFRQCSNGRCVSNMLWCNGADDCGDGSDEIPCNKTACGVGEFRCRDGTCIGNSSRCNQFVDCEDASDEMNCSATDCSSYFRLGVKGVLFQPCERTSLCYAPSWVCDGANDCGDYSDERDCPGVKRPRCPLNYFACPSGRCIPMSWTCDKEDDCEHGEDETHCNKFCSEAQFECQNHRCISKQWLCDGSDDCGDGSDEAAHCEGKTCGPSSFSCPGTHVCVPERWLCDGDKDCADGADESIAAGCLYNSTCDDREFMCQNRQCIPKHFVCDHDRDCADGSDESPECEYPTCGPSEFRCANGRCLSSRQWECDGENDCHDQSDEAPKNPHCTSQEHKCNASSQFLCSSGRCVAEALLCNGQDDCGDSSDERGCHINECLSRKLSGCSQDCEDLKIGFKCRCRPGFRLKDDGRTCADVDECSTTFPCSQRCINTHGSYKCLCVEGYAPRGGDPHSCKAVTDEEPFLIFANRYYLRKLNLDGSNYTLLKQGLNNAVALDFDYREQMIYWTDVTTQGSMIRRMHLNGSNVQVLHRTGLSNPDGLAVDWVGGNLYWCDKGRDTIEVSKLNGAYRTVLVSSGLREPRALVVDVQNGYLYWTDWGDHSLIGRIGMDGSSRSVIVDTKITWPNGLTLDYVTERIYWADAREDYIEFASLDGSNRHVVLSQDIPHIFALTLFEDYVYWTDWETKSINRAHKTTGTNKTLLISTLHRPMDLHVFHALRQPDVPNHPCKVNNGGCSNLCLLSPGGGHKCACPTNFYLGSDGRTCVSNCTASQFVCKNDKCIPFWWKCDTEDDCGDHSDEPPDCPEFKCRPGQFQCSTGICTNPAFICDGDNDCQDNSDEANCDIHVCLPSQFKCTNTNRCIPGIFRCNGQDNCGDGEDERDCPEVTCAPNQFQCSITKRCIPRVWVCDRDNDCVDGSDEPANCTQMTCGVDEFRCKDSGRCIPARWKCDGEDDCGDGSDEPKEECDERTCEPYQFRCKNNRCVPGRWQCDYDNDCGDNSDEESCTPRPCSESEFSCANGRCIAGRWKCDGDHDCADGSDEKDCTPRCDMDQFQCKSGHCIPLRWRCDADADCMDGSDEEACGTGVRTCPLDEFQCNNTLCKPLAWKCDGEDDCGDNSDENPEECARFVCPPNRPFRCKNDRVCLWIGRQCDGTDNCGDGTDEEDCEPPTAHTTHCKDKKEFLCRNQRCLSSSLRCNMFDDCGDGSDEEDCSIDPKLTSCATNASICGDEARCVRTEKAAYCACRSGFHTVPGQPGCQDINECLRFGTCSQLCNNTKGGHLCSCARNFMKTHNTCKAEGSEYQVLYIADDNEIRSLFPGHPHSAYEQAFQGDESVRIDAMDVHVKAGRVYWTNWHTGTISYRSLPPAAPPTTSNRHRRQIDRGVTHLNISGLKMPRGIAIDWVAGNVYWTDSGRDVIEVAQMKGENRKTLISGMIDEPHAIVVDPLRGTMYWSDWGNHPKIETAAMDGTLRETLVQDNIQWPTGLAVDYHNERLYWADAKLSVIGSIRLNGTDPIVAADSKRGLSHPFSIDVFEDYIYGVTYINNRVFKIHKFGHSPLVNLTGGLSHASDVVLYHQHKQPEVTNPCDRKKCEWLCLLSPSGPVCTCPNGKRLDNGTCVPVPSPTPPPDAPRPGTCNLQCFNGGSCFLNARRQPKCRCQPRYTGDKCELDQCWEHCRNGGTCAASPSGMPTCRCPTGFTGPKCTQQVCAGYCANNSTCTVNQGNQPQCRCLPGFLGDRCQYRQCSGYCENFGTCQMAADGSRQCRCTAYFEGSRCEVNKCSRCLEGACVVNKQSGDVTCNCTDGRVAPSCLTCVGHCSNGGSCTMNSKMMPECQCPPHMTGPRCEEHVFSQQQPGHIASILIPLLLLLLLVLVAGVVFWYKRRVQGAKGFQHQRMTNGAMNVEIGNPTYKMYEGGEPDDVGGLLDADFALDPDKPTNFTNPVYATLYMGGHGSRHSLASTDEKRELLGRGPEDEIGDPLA

As for “Human plasma-derived von Willebrand factor-Factor VIII free (a stretch of the chain, sequence left out) (natural protein)”, the decrease in p38 phosphorylation (Western blot, densitometry) in primary human macrophages treated with pd-VWF (10 μg/ml), in the presence of RAP (200 nM) stood at 50% and the decrease in p38 signaling (Western blot, densitometry) in primary human macrophages treated with VWF, in the presence of a monoclonal anti-LRP1 antibody stood at 50%.

The values are drawn from publication PMC9633696.
